From patent US9249147B2, “Tyrosine kinase inhibitors” (CHEMBRIDGE CORPORATION, priority 2008, dated 2016)
pIC50: −log10 of the molar value.

Assays:
ROS = ROS (Homo sapiens, UniProt P08922); assay: Invitrogen SelectScreen Z-lyte kinase assay, Ros; type: biochemical; design: purchased Invitrogen (SelectScreen service); details: 100 μM ATP
Protocol: (§1) To evaluate selectivity versus other kinases, inhibition of various kinases by compound (II) was determined. In particular, IC50s for TrkA, Jak2, Axl tyrosine kinases were determined using ADP Hunter (DiscoverX) kinase assay. Single point profiling of compound (II) on 50 human tyrosine kinases and 10 Ser-Thr kinases was done at Upstate/Millipore by radiometric assay. […] The subset of the 520 kinases in the human kinome that were tested was strategically selected to cover most of the therapeutically relevant tyrosine kinases and to represent major branches of serine-threonine kinases.
(§2) Compound (II) was a multitargeted tyrosine kinase (TK) inhibitor with a distinct pattern of inhibition focused on ALK, Trk family, Ros and Ret kinases. Invitrogen SelectScreen (Z-lyte assay) produced the following IC5O values for this set of kinases: ALK 9.75 nM, TrkA 1.5 nM, TrkB 1.4 nM, TrkC 1.8 nM, Ret 7.1 nM, Ros 1.8 nM (all measured at 100 μM ATP). […] About 70% of the 50 TKs tested have selectivity in excess of 50-fold for ALK and higher for Ret, Ros and Trk family members.

TRKA = TRKA (Homo sapiens, UniProt P04629); assay: Invitrogen SelectScreen Z-lyte kinase assay, TrkA; type: biochemical; design: purchased Invitrogen (SelectScreen service); details: 100 μM ATP
Protocol: as §1, §2

[1] = Partition Coefficient (Log D, n-octanol/PBS, pH 7.4); type: physicochemical; details: 1.0E−04 M, read-out: Partition Coefficient Log D, Weighed Average of Three Replicates
[2] = Cytotoxicity panel in HepG2 (Cerep ADMET study 13170); type: cell-based, human; details: human, HepG2 cells; HepG2; estimate; read-out: Nonspecific cytotoxicity IC50
Protocol: (§3) In addition to the above proliferation inhibition experiments, compound (II) was tested for cytotoxicity at Cerep (ADMET study 13170) with human hepatocellular carcinoma cell line HepG2. Several cellular parameters, such as nuclear size, mitochondrial membrane potential, intracellular free calcium, membrane permeability and cell numbers were measured during this study to evaluate cytotoxicity at 0.5, 5 and 20 μM compound concentrations.
(§4) Raw data will be expressed as % of effect (either inhibition or increase) relative to the untreated control cells. The data will also be normalized using the reference compound (cerivastatin), whose maximum effect will be considered “100% effect.” The reference compound will also be used to define the top and bottom of the dose-response curve, if one is calculated. […] The results include the following end points:
(§5) Nuclear Size: expressed as % inhibition relative to control values.
(§6) Mitochondrial Membrance Potential: expressed as % inhibition relative to control values.
(§7) Intracellular Free Calcium: expressed as % increase relative to control values.
(§8) Membrance permeability: expressed as % increase relative to control values.
(§9) Cell Numbers: expressed as % inhibition relative to control values.

HepG2 = assay: as above; type: cell-based, human; details: HepG2, cumulative
Protocol: as §3, §4, §5, §6, §7, §8, §9

CYP2C19 = target: T1, CYP2C19 (Homo sapiens, UniProt P33261); assay: CYP2C19 Inhibition (recombinant, CEC substrate); type: in vitro ADME
T1 construct: purchased Cerep (contract assay, ADMET Study 13170)
T1 sequence (P33261 whole entry): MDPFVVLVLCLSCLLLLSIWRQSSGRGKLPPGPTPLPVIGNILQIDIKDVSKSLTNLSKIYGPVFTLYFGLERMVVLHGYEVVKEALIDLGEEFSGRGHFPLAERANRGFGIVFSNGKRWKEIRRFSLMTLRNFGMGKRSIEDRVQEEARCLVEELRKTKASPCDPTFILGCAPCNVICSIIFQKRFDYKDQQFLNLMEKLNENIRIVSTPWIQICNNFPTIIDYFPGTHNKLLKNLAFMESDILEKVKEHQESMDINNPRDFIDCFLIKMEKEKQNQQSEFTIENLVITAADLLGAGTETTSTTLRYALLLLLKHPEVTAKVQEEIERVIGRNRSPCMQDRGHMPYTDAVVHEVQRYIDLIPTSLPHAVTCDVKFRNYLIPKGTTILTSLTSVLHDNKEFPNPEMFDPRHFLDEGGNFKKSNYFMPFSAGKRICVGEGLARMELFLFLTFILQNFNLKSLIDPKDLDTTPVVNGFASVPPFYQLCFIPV

hERG = hERG (Homo sapiens, UniProt Q12809); assay: hERG Qpatch 16 automated whole-cell patch clamp in CHO-K1 (Cerep hERG Study 13292); type: cell-based; details: 2.5E−08 M (25 nM); CHO-K1, automated patch clamp
Sequence of UniProt Q12809 (Q12809 whole entry): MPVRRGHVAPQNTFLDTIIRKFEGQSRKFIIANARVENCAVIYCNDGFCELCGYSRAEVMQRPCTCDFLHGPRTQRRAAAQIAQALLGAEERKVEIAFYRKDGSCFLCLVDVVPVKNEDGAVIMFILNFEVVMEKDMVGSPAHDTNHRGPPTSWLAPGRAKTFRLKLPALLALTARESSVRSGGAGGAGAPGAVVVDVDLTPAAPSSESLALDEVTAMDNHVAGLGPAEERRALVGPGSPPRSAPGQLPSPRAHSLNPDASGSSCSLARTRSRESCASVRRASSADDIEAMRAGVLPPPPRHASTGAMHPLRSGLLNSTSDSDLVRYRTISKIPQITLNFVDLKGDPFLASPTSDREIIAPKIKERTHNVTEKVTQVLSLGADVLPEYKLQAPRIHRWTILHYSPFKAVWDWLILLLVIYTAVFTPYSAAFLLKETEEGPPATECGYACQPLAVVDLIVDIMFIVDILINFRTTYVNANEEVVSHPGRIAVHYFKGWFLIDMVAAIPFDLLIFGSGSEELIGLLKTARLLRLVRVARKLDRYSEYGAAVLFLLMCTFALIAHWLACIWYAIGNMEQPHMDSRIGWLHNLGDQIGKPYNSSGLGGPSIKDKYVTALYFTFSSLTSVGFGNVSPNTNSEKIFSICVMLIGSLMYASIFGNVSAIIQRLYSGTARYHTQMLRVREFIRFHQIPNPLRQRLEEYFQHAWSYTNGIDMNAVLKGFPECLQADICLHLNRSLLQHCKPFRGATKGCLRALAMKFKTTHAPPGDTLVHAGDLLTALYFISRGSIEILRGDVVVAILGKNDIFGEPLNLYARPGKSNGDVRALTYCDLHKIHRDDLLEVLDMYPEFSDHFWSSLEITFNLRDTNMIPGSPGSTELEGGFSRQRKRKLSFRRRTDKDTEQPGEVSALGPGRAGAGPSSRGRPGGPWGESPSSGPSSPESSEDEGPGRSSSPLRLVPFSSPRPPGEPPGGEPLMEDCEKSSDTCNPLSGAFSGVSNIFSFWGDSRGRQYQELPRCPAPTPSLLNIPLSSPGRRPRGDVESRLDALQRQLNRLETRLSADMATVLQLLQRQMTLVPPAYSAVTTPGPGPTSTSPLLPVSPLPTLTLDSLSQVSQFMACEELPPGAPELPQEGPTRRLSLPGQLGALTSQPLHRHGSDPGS
Protocol: The cardiac potassium channel, hERG, is responsible for the rapid delayed rectifier current (IKr) in the human ventricle. Inhibition of IKr is the most common cause of cardiac action potential prolongation by noncardiac drugs. Increased action potential duration causes prolongation of the QT interval that has been associated with a dangerous ventricular arrhythmia, torsade de pointer.
Compound (II) was initially tested at 1 μM concentration using a standard patch clamp protocol (Cerep ADMET Study 13170). The hERG channel was expressed in a human embryonic kidney (HEK293) cell line that lacks endogenous hERG channels. […] We have retested compound (II) in hERG assay in a range of lower concentrations to estimate IC50 of hERG inhibition more precisely (Qpatch 16 automated whole-cell patch clamp protocol in CHO-K1 cell line stably expressing hERG, Cerep hERG Study 13292). […] This kind of potency in hERG inhibition should not represent a significant clinical problem since the high degree of hERG inhibition would occur only at the compound concentrations above the expected therapeutic levels.

CYP3A4 = target: T2, CYP3A4 (Homo sapiens, UniProt P08684); assay: CYP3A4 Inhibition (recombinant, BFC substrate); type: in vitro ADME
T2 construct: purchased Cerep (contract assay, ADMET Study 13170)
T2 sequence (P08684 whole entry): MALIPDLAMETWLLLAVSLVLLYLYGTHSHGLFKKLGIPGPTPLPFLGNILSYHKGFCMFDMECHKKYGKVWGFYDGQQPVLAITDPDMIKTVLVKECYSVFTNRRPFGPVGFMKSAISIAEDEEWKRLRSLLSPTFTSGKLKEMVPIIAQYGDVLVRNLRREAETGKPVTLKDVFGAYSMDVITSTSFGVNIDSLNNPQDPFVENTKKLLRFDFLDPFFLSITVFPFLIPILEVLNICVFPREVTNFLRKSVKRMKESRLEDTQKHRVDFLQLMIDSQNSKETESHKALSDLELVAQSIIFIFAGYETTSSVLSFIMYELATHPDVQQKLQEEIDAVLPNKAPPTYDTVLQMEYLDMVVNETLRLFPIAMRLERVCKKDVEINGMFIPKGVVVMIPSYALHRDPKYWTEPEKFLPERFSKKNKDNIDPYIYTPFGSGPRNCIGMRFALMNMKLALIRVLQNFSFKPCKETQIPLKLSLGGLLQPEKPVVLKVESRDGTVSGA

TrkB = target: T3, TrkB (Homo sapiens, UniProt Q16620); assay: Invitrogen SelectScreen Z-lyte kinase assay, TrkB; type: biochemical; details: 100 μM ATP
T3 construct: purchased Invitrogen (SelectScreen service)
Protocol: as §1, §2

Cc1ccc(F)cc1C[C@H](C)Nc1cc[nH]c(=O)c1-c1nc2cc3c(cc2[nH]1)C(=O)N(CCN1CCCC1)C3 [compound (II)]
pIC50 (ROS): 8.74
pIC50 (TRKA): 8.82
logD [1]: 3.63
pIC50 [2]: 5.52 to 5.70
Cytotoxicity panel overall result (HepG2): cytotoxic and pro-apoptotic
inhibition at 1 µM (CYP2C19; human, recombinant CYP2C19, probe CEC, 1.0E−06 M, read-out: CYP2C19 % Inhibition of Control Values): 80%
inhibition at 5 µM (CYP2C19; human, recombinant CYP2C19, probe CEC, 5.0E−06 M, read-out: CYP2C19 % Inhibition of Control Values): 90%
approximate IC50 CYP2C19 (CYP2C19; suggested by % inhibition at 1 and 5 μM): triple-digit nM
% Inhibition of Tail current (mean) (hERG): 22.5%
inhibition at 1 µM (CYP3A4; human, recombinant CYP3A4, probe BFC, 1.0E−06 M, read-out: CYP3A4 % Inhibition of Control Values): 46%
inhibition at 5 µM (CYP3A4; human, recombinant CYP3A4, probe BFC, 5.0E−06 M, read-out: CYP3A4 % Inhibition of Control Values): 95%
pIC50 (CYP3A4; read-out: approximate IC50 CYP3A4): ~6.00
pIC50 (TrkB): 8.85
